Our source for the binding signal values is paper PMC12136788.

The other results are listed elsewhere or left out.

The chains are these.
B1: chr10:121967677:121967791:-|CDS|ENSG00000107672|unk|FALSE|bound_elsewhere (ssRNA)
RNA: GGGAGUUCUACAGUCCGACGAUCAAAUCCGCUAGAAGCUGAAGAACUCAUCCGUGAUGAAGAUAGUCCUGAUUUUGAAUUCAUAGUCUAUGACUCCUGGAAGAUAACAGGCAGAACAGCAGAAAACACCUUUAAUAAAACCCACAACAGAGGAUUGAGCAUCA
B2: chr15:64957256:64957357:+|3pUTR|ENSG00000166839|msi1|FALSE|unique (ssRNA)
RNA: GGGAGUUCUACAGUCCGACGAUCGCUGGAAAAUUGAAACAUAAUUUCACAAUUAUUCCUUUUUCCACCUUAAAUAAUAAGAGUAGAAUACUUUCUGUGUUUUUAUCUUAUACACAUGAAUAAAUGCUAUGGCUUAUCACAGUUCAACAGAGGAUUGAGCAUCA
B3: chr16:46956602:46956663:-|3pUTR|ENSG00000069345|msi1_unk|total|mutant (ssRNA)
RNA: GGGAGUUCUACAGUCCGACGAUCGUUUGUACAAUUUGUCCUGAAGCUUUGUGUUUGGCUGCACCUGCAUAAGCUGCUACAAACCGAAUAAAGAAUUUCACCGCCUGUAUCUAUCAUUCCGAUGCAUGGAAAAAAAUGGGCUUUCAACAGAGGAUUGAGCAUCA
B4: chr9:104598459:104599413:-|CDS|ENSG00000277556|control|control|control (ssRNA)
RNA: GGGAGUUCUACAGUCCGACGAUCCUUAUAUUCAUAUUCUACAGGGUGAUGACUCCCAUGAUGAAUCCUUUAAUCUACAGUCUUAGAAACAAGGAUGUGAAGGAGGCAGUAAAACACCUACUGAGAAGAAAAAAUUUUAACAAGCAACAGAGGAUUGAGCAUCA
B5: ENSG00000152377:stop:overlap|stop_codon|ENSG00000152377|stop_codon|NA|stop_codon (ssRNA)
RNA: GGGAGUUCUACAGUCCGACGAUCUGACAGAGGAUGAUGAGGAUGAGGAUGAUGACAAAGAGGAUGAGGUCGGGUACAUAUGGUAGUGCCCACAAGAAAGAGGACACAAGUUUUGCACAAAAUUGCAAGUCACUUCCUAUUCCUCAACAGAGGAUUGAGCAUCA
B6: chr1:93180074:93180188:-|CDS|ENSG00000117500|unk|total|mutant (ssRNA)
RNA: GGGAGUUCUACAGUCCGACGAUCCUGGCCGCUCUGCCUCCGGUGCUGCUGCCUGGGGCGGCCGGCUUCACACCUUCCCUCGACCGCGACUUCACCUUUACCCUUCCCGCCGGCCAGAAGGAGUGCUUCUACCAGCCCAUGCCCCAACAGAGGAUUGAGCAUCA
B7: chr12:100626600:100626701:+|3pUTR|ENSG00000139354|unk|total|mutant (ssRNA)
RNA: GGGAGUUCUACAGUCCGACGAUCAAUUUUAUCAUCAAGUAUUCCCUUAUAAAACCAAGUAACACUUCUUUAUCAGUAACUUUCCGAACUUAAAAGAAAGCAAAAAGUAAAUGGAAUUGCCGGCAAUUUAUGAAUCCCCGCCGACAACAGAGGAUUGAGCAUCA
B8: chr4:177362735:177362840:+|3pUTR|ENSG00000109674|unk|total|mutant (ssRNA)
RNA: GGGAGUUCUACAGUCCGACGAUCAAAGUGUUUUCCGUAUGCUUUCCGUCUCUUGUAACUGGGGAGAAGCAGUGUUUUUUUUUCCGGAAAGGAUUAUGCGACACAAUAAAAUAAGAUAUUCUGUCUGCCGUGAAUACAUUUCUCCAACAGAGGAUUGAGCAUCA
B9: ENSG00000198589:be:win_901|CDS|ENSG00000198589|bound_else_gene|NA|bound_elsewhere_windowed (ssRNA)
RNA: GGGAGUUCUACAGUCCGACGAUCAUGGUUACCAUAGUACACAUCUAUAACCGAUGGAAGAAUAGUGAACUUCGAUGUUAUGUGAAUGGUGAGCUGGCUUCCUAUGGAGAGAUAACAUGGUUUGUCAACACUAGCGAUACCUUUCAACAGAGGAUUGAGCAUCA
B10: chr5:32419879:32419980:-|CDS|ENSG00000056097|msi1|total|mutant (ssRNA)
RNA: GGGAGUUCUACAGUCCGACGAUCAGUUACUGCUGCCUAUGCACCAGCAGCCGCCACAGUUGCAGUUGCCAGGCCUGCUCCAGCCGCUGUUGCAGCUGCUGCAACAGCUGCUGCUUAUGGAGGCUACCCCACUGCACACACAGCCAACAGAGGAUUGAGCAUCA
B11: chr5:14398947:14399058:+|CDS|ENSG00000038382|unk|total|mutant (ssRNA)
RNA: GGGAGUUCUACAGUCCGACGAUCCCCAAAAACCUUAAUUCGAAAGGGUCGAGAACGGCAUCUCUUCCUUUUUGAAAUGUCCUCCGUAUUCCGUAAAGAAGUGAAAGAUUCCAGUGGGAGAAGCAAGUACCUUUAUAAAAGCAACAACAGAGGAUUGAGCAUCA
B12: chr1:37534448:37537747:-|three_prime_utr|ENSG00000163877|control|control|control (ssRNA)
RNA: GGGAGUUCUACAGUCCGACGAUCCACAUGCCUGCAGGCAUUUGUUUUCAGAACAGUCUCACCAAUUACAACACACCGUGUUUUAGUAGAAGUGUUGUGGUUUUAGUUGGUGCUUUCAGAACUGCUGCCUAGGAAACUAUAAACCAACAGAGGAUUGAGCAUCA
B13: chr2:219567793:219567894:-|CDS|ENSG00000124006|msi1|total|mutant (ssRNA)
RNA: GGGAGUUCUACAGUCCGACGAUCCCUGCCCCGGAAGCUCGACGUCCUGGAAGGAGAGAAUGCUGUGCUGCCCGUGGAAACUCCCGAGGCCGGGGUCGAGGGACGCUGGAGCCGUGAUGGGGAGGAGCUGCCGGUCAUCUGCCACAACAGAGGAUUGAGCAUCA
B14: chr21:31659700:31659757:+|5pUTR|ENSG00000142168|msi1_unk|FALSE|overlapping (ssRNA)
RNA: GGGAGUUCUACAGUCCGACGAUCCGAGGCGCGGAGGUCUGGCCUAUAAAGUAGUCGCGGAGACGGGGUGCUGGUUUGCGUCGUAGUCUCCUGCAGCGUCUGGGGUUUCCGUUGCAGUCCUCGGAACCAGGACCUCGGCGUGGCCAACAGAGGAUUGAGCAUCA

In this assay the target is MSI1 full-length (mouse, UniProt Q61474 1-362). The assay can be described thus: nsRBNS (natural sequence RNA bind-n-seq); RBNS binding buffer (assumed for nsRBNS): 25 mM Tris pH 7.5, 150 mM KCl, 3 mM MgCl2, 0.01% Triton X-100, 500 ug/ml BSA, 20 U/ml SUPERase-In, 4 C; UNK is unkempt and MSI1 is Musashi-1; names of the RNAs are library labels; protein concentration not given here; high values mean tight binding.
Sequence of UniProt Q61474 (Q61474 whole entry): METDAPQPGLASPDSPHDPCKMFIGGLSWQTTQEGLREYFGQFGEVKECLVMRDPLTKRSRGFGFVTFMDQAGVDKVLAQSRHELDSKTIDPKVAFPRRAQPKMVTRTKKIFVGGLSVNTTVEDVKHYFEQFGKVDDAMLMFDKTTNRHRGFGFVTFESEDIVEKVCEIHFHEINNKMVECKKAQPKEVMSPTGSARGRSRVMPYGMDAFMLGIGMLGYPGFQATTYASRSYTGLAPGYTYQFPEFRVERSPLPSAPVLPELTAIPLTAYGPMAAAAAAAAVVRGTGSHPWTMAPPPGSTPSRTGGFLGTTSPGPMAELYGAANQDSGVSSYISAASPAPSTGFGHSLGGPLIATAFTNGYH
In turn, B1 registered a binding signal of 0.664 enrichment R.
As for B2, the figure is 0.709 enrichment R; as for B3, 0.189 enrichment R.
As for B4, the figure is 0.534 enrichment R; as for B5, 0.454 enrichment R; as for B6, 0.67 enrichment R.
With B7 the figure was 0.907 enrichment R; with B8, 0.359 enrichment R; with B9, 0.574 enrichment R.
Regarding B10, the binding signal amounted to 0.278 enrichment R.
With B11 the figure was 0.383 enrichment R; with B12, 1.49 enrichment R; with B13, 0.518 enrichment R.
With B14 the figure was 0.511 enrichment R.
